# Laboratory results: the supplement of paper PMC8728848
# This is one part of the list.
# B1: Neuropilin-1 (Rattus norvegicus), Q9QWJ9 (protein)
# chain: MERGLPLLCATLALALALAGAFRSDKCGGTIKIENPGYLTSPGYPHSYHPSEKCEWLIQAPEPYQRIMINFNPHFDLEDRDCKYDYVEVIDGENEGGRLWGKFCGKIAPSPVVSSGPFLFIKFVSDYETHGAGFSIRYEIFKRGPECSQNYTAPTGVIKSPGFPEKYPNSLECTYIIFAPKMSEIILEFESFDLEQDSNPPGGVFCRYDRLEIWDGFPEVGPHIGRYCGQKTPGRIRSSSGILSMVFYTDSAIAKEGFSANYSVLQSSISEDFKCMEALGMESGEIHSDQITASSQYGTNWSVERSRLNYPENGWTPGEDSYREWIQVDLGLLRFVTAVGTQGAISKETKKKYYVKTYRVDISSNGEDWITLKEGNKAIIFQGNTNPTDVVFGVFPKPLITRFVRIKPASWETGISMRFEVYGCKITDYPCSGMLGMVSGLISDSQITASNQGDRNWMPENIRLVTSRTGWALPPSPHPYINEWLQVDLGDEKIVRGVIIQGGKHRENKVFMRKFKIAYSNNGSDWKMIMDDSKRKAKSFEGNNNYDTPELRAFTPLSTRFIRIYPERATHSGLGLRMELLGCEVEVPTAGPTTPNGNPVDECDDDQANCHSGTGDDFQLTGGTTVLATEKPTIIDSTIQSEFPTYGFNCEFGWGSHKTFCHWEHDSHAQLRWRVLTSKTGPIQDHTGDGNFIYSQADENQKGKVARLVSPVVYSQSSAHCMTFWYHMSGSHVGTLRVKLHYQKPEEYDQLVWMVVGHQGDHWKEGRVLLHKSLKLYQVIFEGEIGKGNLGGIAVDDISINNHIPQEDCAKPTDLDKKNTEIKIDETGSTPGYEEGKGDKNISRKPGNVLKTLDPILITIIAMSALGVLLGAVCGVVLYCACWHNGMSERNLSALENYNFELVDGVKLKKDKLNPQSNYSEA
# Experiments:
# Assay in all cases: glycan array binding signal (z-score within array); higher = stronger binding
# Details in all cases: glycan notation: IUPAC condensed, linker removed
# [1] = target: Gal(b1-3)[Fuc(a1-4)]GlcNAc(b1-2)Man(a1-3)[Gal(b1-3)[Fuc(a1-4)]GlcNAc(b1-2)Man(a1-6)]Man(b1-4)GlcNAc(b1-4)GlcNAc
# Summary of the method: (§1)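 The binding signal is a Z-score computed within each array. Data were drawn from 3228 arrays in the Consortium for Functional Glycomics database, restricted to those with a known protein sequence. Scores were averaged over arrays of the same protein sequence at different concentrations or buffers, and over linkers, and negative values can be taken as non-binding.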
# [2] = target: Gal(b1-3)[Fuc(a1-4)]GlcNAc(b1-2)Man(a1-3)[Gal(b1-3)[Fuc(a1-4)]GlcNAc(b1-2)Man(a1-6)]Man(b1-4)GlcNAc(b1-4)[Fuc(a1-6)]GlcNAc
# Summary of the method: as §1
# [3] = target: Gal(b1-3)[Fuc(a1-4)]GlcNAc(b1-3)Gal(b1-3)[Fuc(a1-4)]GlcNAc
# Summary of the method: as §1
# [4] = target: Gal(b1-3)[Fuc(a1-4)]GlcNAc(b1-3)Gal(b1-4)GlcNAc
# Summary of the method: as §1
# [5] = target: Gal(b1-3)[Fuc(a1-4)]GlcNAc(b1-3)Gal(b1-4)[Fuc(a1-3)]GlcNAc
# Summary of the method: as §1
# [6] = target: Gal(b1-3)[GlcNAc(b1-6)]GalNAc
# Summary of the method: as §1
# [7] = target: Gal(b1-3)[Neu5Ac(a2-6)]GalNAc
# Summary of the method: as §1
# [8] = target: Gal(b1-3)[Neu5Ac(a2-6)]GlcNAc(b1-6)Gal(b1-4)Glc
# Summary of the method: as §1
# [9] = target: Gal(b1-3)[Neu5Ac(b2-6)]GalNAc
# Summary of the method: as §1
# [10] = target: Gal(b1-4)GalNAc(a1-3)[Fuc(a1-2)]Gal(b1-4)GlcNAc
# Summary of the method: as §1
# [11] = target: Gal(b1-4)GalNAc(b1-3)[Fuc(a1-2)]Gal(b1-4)GlcNAc
# Summary of the method: as §1
# Gal(b1-4)Glc = target: Gal(b1-4)Glc
# Summary of the method: as §1
# Gal(b1-4)Glc6S = target: Gal(b1-4)Glc6S
# Summary of the method: as §1
# Gal(b1-4)GlcNAc = target: Gal(b1-4)GlcNAc
# Summary of the method: as §1
# [12] = target: Gal(b1-4)GlcNAc(a1-6)Gal(b1-4)GlcNAc
# Summary of the method: as §1
# [13] = target: Gal(b1-4)GlcNAc(b1-2)Man(a1-3)Man(b1-4)GlcNAc(b1-4)GlcNAc
# Summary of the method: as §1
# [14] = target: Gal(b1-4)GlcNAc(b1-2)Man(a1-3)[Gal(b1-4)GlcNAc(b1-2)Man(a1-6)]Man(b1-4)GlcNAc(b1-4)GlcNAc
# Summary of the method: as §1
# [15] = target: Gal(b1-4)GlcNAc(b1-2)Man(a1-3)[Gal(b1-4)GlcNAc(b1-2)Man(a1-6)]Man(b1-4)GlcNAc(b1-4)[Fuc(a1-6)]GlcNAc
# Summary of the method: as §1
# [16] = target: Gal(b1-4)GlcNAc(b1-2)Man(a1-3)[Man(a1-6)]Man(b1-4)GlcNAc(b1-4)GlcNAc
# Summary of the method: as §1
# [17] = target: Gal(b1-4)GlcNAc(b1-2)Man(a1-6)Man(b1-4)GlcNAc(b1-4)GlcNAc
# Summary of the method: as §1
# [18] = target: Gal(b1-4)GlcNAc(b1-2)Man(a1-6)[Man(a1-3)]Man(b1-4)GlcNAc(b1-4)GlcNAc
# Summary of the method: as §1
# [19] = target: Gal(b1-4)GlcNAc(b1-2)[Gal(b1-4)GlcNAc(b1-4)]Man(a1-3)[Gal(b1-4)GlcNAc(b1-2)Man(a1-6)]Man(b1-4)GlcNAc(b1-4)GlcNAc
# Summary of the method: as §1
# [20] = target: Gal(b1-4)GlcNAc(b1-3)Gal(b1-3)GlcNAc
# Summary of the method: as §1
# [21] = target: Gal(b1-4)GlcNAc(b1-3)Gal(b1-4)Glc
# Summary of the method: as §1
# [22] = target: Gal(b1-4)GlcNAc(b1-3)Gal(b1-4)GlcNAc
# Summary of the method: as §1
# [23] = target: Gal(b1-4)GlcNAc(b1-3)Gal(b1-4)GlcNAc(b1-3)Gal(b1-4)GlcNAc
# Summary of the method: as §1
# [24] = target: Gal(b1-4)GlcNAc(b1-3)Gal(b1-4)[Fuc(a1-3)]GlcNAc(b1-3)Gal(b1-4)[Fuc(a1-3)]GlcNAc
# Summary of the method: as §1
# [25] = target: Gal(b1-4)GlcNAc(b1-3)GalNAc
# Summary of the method: as §1
# [26] = target: Gal(b1-4)GlcNAc(b1-3)[Gal(b1-4)GlcNAc(b1-6)]Gal(b1-4)GlcNAc
# Summary of the method: as §1
# [27] = target: Gal(b1-4)GlcNAc(b1-3)[GlcNAc(b1-6)]Gal(b1-4)GlcNAc
# Summary of the method: as §1
binder,measurement,setting,value
B1,glycan array binding signal (z-score),[1],3.3
same,glycan array binding signal (z-score),[2],2.37
same,glycan array binding signal (z-score),[3],-0.229
same,glycan array binding signal (z-score),[4],-0.294
same,glycan array binding signal (z-score),[5],-0.263
same,glycan array binding signal (z-score),[6],-0.229
same,glycan array binding signal (z-score),[7],-0.251
same,glycan array binding signal (z-score),[8],-0.262
same,glycan array binding signal (z-score),[9],-0.235
same,glycan array binding signal (z-score),[10],0.018
same,glycan array binding signal (z-score),[11],-0.204
same,glycan array binding signal (z-score),Gal(b1-4)Glc,-0.332
same,glycan array binding signal (z-score),Gal(b1-4)Glc6S,-0.22
same,glycan array binding signal (z-score),Gal(b1-4)GlcNAc,-0.064
same,glycan array binding signal (z-score),[12],-0.104
same,glycan array binding signal (z-score),[13],-0.225
same,glycan array binding signal (z-score),[14],-0.288
same,glycan array binding signal (z-score),[15],-0.274
same,glycan array binding signal (z-score),[16],-0.02
same,glycan array binding signal (z-score),[17],-0.165
same,glycan array binding signal (z-score),[18],-0.353
same,glycan array binding signal (z-score),[19],-0.295
same,glycan array binding signal (z-score),[20],-0.323
same,glycan array binding signal (z-score),[21],-0.284
same,glycan array binding signal (z-score),[22],-0.263
same,glycan array binding signal (z-score),[23],-0.269
same,glycan array binding signal (z-score),[24],-0.201
same,glycan array binding signal (z-score),[25],-0.211
same,glycan array binding signal (z-score),[26],-0.28
same,glycan array binding signal (z-score),[27],-0.205
